# Measurements reported in the supplement of paper PMC12632987.
# Whole data set: some 4,500 sequences, median “median log2 fold change of GCK-ALFA target abundance (FLAG IP / Myc IP barcode read proportion)” near 0.078, cut for the lowest 2% near -0.6. Some of the results follow.
# B1: GBRAP_160_4604 (protein)
# chain: MEEVEKLVEELEEIAEEAVAMIEGQSPEERLVIVRVAAGEIRLLLDESPIVTDEVEDFADEVLDALIATVEANPDLSVEELAALFAETIEKIREKLEEEA
# B2: GBRAP_14_3838 (protein)
# chain: SEELRKLLLEVVDRAVAAVAELAPPEDAPEVAALRERLEEAVEEVLKLGDFEEAEKRLLEVAEETVDELFAHLPATERAAIRAEALDVLLEGLEEVEEKL
# B3: GBRAP_14_3833 (protein)
# chain: MEEVKRVIRETVEEIRDSLSRMFPEKAEEIAEALDRILERVLRLLEETGDVEEALELLERETLAAVDEILADESPEAQAAARAEVINEIAEAEEEIEELL
# B4: GBRAP_52_5960 (protein)
# chain: MEEKMKKLVEELLKLAKEGKEEELEKKLREIARTLNEEELEKLAEVMAEKVEESDLETAEILLDIALRLGDILIEEGRDEGIASLIEAKVAAAAYKLEQK
# B5: GBRAP_11_2616 (protein)
# chain: KKEALKKAAELAEKLAETVQKLLEEGVDNEELRKEAEELLKELKELVKKELDEAHKTDVEVLEELWEEAKADPERAEEYARQLLAAARVFEGNMLLDIEE
# B6: GBRAP_160_4463 (protein)
# chain: KEEVKEAVEELRERVEEVLEDSENMSPEQILLAVAVEVGSSLLEWEEEGKISDEQAEILAKAIDELLRLAKEEKNASPEEAKKRAREIVEKAAKEILAAA
# B7: GBRAP_184_5184 (protein)
# chain: MIYEKTIKFENVEELVEQIKKIAEEVKGKNVNLYIILEAEEVTVEMAEAALNELGKIKKSGYAKSITVLVEGNVSEEVVDVLVEKAKEAGINVTIALPEE
# B8: GBRAP_53_6402 (protein)
# chain: MEEEIERLKEEILRLTEEATKADDEEREKLVKEIGEKLKKLKEAGMPEEEIEELAREVAKKLKEAGAPDRHLTLLAQKLEELGLEEATAEIGELLVEDLE
# B9: GBRAP_39_5697 (protein)
# chain: EREEEAEDTFSYLEAIGAKYQVEEKISLEEARERTRELAERFIKEHPEIAEVLKELLELAEKAGDLAILALLGLLLRAEEGTPLEEIKKDAELLIEYLKS
# B10: GBRAP_14_3766 (protein)
# chain: RAEIHAIIRDTGARIVALLAEIDPAHAAEFAAAIDAVVAETIAAIDATGDAEAAAEAGEDRLVARVREISADLPAERRAQLEAVVRVEFGEAILEIDEAL
# B11: GBRAP_160_4372 (protein)
# chain: SPELKKLAKEIEELKKEFEEEAKDLSPEEVRTLAIGVLSEVAALVFENEAVPEEVEDEIFEIIDEAIEKLRASTDASPEEIVAITKEALDKIIELVKKAA
# B12: GBRAP_184_5159 (protein)
# chain: KVLERTLKVKNLEEAKEKLEEIRAEAKETKADLYVFLELEELDKEILETILTGLGEIKAEGYAPNVVVHLEAELNDEEIDFVLSLADAAGVRVVLAIPDE
# B13: GBRAP_195_5409 (protein)
# chain: RKVVGRVLRIGADDTPEDILAKIEAIVAEVKAESNGDLVLVVARHPSVPEETVLAAVKEAQARFPDIKITVEVFDDDSLPLSTLEAFARMEVANLEEELE
# B14: GBRAP_128_3550 (protein)
# chain: SLEEARKEAEKVVEEIKNSDVEKAREIMRKFAEWLKTKSLEEVEAALEVVEEKAKELDAEKLEAVADVLLEQRDLFSPEVQNLIADTAVELLNEAEEKEE
# B15: GBRAP_160_4028 (protein)
# chain: SEKLEKLKAFAEEEFEEAKELIKGQSAEQVAAIVAVTVGRIILEAEELGIDDDEMLDRIDEIGDEAVETILENPELSEEERRELIEEAREEVLEAIEESE
# B16: GBRAP_128_3361 (protein)
# chain: LDEELLKEAKKLVEAMKTADVETTRKLTEKVIELMKKADAETAEAIAEILKEALPELTAEKLDAIADAIRKARPEADPEKANLLADVEVEALNEAVEKEE
# B17: GBRAP_125_3069 (protein)
# chain: PSDEELADLATLARALGFSESEVAEAVEIARASSLRQTLVAIALAEDAEELADAIERLTEEEAAELLRRLAAELAAHPDLTPEEVLARALALARELIAAR
# B18: GBRAP_11_2686 (protein)
# chain: KKEKLKEGAELAKEAAAVVKELLEKGTDDEELLKKLKELLEKLKELTEKYGDPDLKKLAKIAVELFEEALKDKENKEKYMKELLAALEVLAGDYLLLIEE
# B19: GBRAP_11_2605 (protein)
# chain: KKETLKKAAELAEELAKAVEELLKEGVDNEELRKKIKELLEKLKKLVEEELDESDKKDVEVLEELWKKAEEDPENREEYLEQLRAAALVLSGNFLLEIEE
# B20: GBRAP_52_6045 (protein)
# chain: MRERMRRLARELVALVKAGDREGARELAKRIAEELDDEELRLLAEELAALAREGDEEEREAVLEAAEILAEELERAGKDPALADEIEARVAAAAYEASLK
# B21: GBRAP_125_3060 (protein)
# chain: SKEEAIANLARIARALGYSEDDIAELERLARASSIKNTMIAIALAEGDEELADALARLSEEEVIAVLARAAAELAANPDLTPEEVRALLLRLAREALAAA
# B22: GBRAP_160_4774 (protein)
# chain: SEKKEELIKEIEEAAKEIKEAIDTESPEEALTVVRGETGDIIMEVFELGFDNDELEDKVAEIMDKLVKDMEEAKDKSPEEKKAIVEEYKKEAIETIEKLS
# B23: GBRAP_160_3992 (protein)
# chain: SEKIEELKEEFKEIFEETLALARGESPEERLAVVRVMAGEVILLAEESGVLSDEAVEKIAEVMDELVATVEANPDMSDEELAALLEKALEKIFKIIDEES
# B24: GBRAP_74_6540 (protein)
# chain: SEEVLEEIKKLIEEGKFLEAAELVIKVIKEEDTETALEALRIFLKGVIENKDKLTLEEAEKIGDVIAEAFTLIPDEEFSDELYDLINKTLEIIIEIEKKS
# B25: GBRAP_11_2887 (protein)
# chain: KKEKLKELAEIAEEIAEKIEELLEEGVDNEELLKEIEELLKKLAELTKKYADKGSQKLTEIAAELFKEALENPEKREEYLKELLAAVRVLEGDYLLEAEE
# B26: GBRAP_64_6488 (protein)
# chain: EEEIEKLLKEALELVEKLLELVKDLSEELQKKVKKVLELLKKAEEASLEERLDLVVEAAKLMNEILKDPELTEEQKEQAAEALDALSELAQELFEAEEEK
# B27: GBRAP_52_6099 (protein)
# chain: SEERLREYAERLVEAAVAGDVERATELLLEAVASLSDEEVLEMLRLAAELMSKLPPEELERATDVMLEALDRVAEATGKEELMDLAEAEVAAIAYEALQK
# B28: GBRAP_52_6199 (protein)
# chain: MEERMRELAERVFEAVKAGRLEEARELLRELAEERDEEAIRLFTEELARLALTVPEEDWDAVFEAAELFEEVAEEEGVPEELADEAIARVAAALYKREQA
# B29: GBRAP_160_4352 (protein)
# chain: SETVERLIEEIRRVAEEVKEEIDDLSVEEVRIIAAGLFGEVFMEAAEDPRISDELEDVVIDGRDRVLEFLKANENASVEEIKEGIERIVEETIRRIKEIA
# Molecular target: GABARAP, O95166
# Test: median log2 fold change of GCK-ALFA target abundance (FLAG IP / Myc IP barcode read proportion) (log2 ratio); each designed protein is fused to an ALFA-tag nanobody in HEK293 cells to bring the named protein to FLAG-tagged glucokinase (GCK); Myc marks an untargeted standard; higher = target protein stabilised (more abundant)
# Details: target protein: 3xFLAG-MCP-GCK-ALFA reporter; HEK293 landing pad (RPLP)
# In short: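 Binders fused to an ALFA nanobody were recombined as a library into HEK293 landing-pad cells, which were induced with 2 μg mL^−1 doxycycline and then transfected to express a FLAG-tagged target and a Myc-tagged standard. After 48 h, circular RNA barcodes recovered by anti-FLAG and anti-Myc immunoprecipitation of lysates were reverse transcribed, amplified and sequenced. Each binder's target abundance is the median log2 ratio of FLAG to Myc barcode read proportions, from barcodes present at ≥10^−7 in both replicates, binders carrying ≥3 barcodes per replicate, a 10^−6 pseudocount and pooled replicates.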
# Chain of GABARAP, O95166 (O95166 whole entry, the tested form may be a part): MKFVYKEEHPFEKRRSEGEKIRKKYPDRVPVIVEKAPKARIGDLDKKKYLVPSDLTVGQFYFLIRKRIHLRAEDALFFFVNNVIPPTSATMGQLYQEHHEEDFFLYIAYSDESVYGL
row,Binder,median log2 fold change
1,B1,-0.0855
2,B2,-0.0168
3,B3,-0.119
4,B4,-0.0314
5,B5,0.265
6,B6,-0.697
7,B7,0.0551
8,B8,0.433
9,B9,0.186
10,B10,-0.0243
11,B11,-0.0587
12,B12,-0.122
13,B13,0.187
14,B14,0.223
15,B15,-0.313
16,B16,0.0187
17,B17,-0.12
18,B18,0.351
19,B19,0.225
20,B20,-0.0201
21,B21,-0.055
22,B22,-0.0262
23,B23,-0.427
24,B24,-0.448
25,B25,0.149
26,B26,0.192
27,B27,0.0627
28,B28,-0.0996
29,B29,0.126
